Over roughly 1,000 compounds, “relative growth recovery (pomalidomide 10 uM = 100%, DMSO = 0%)” has its median near -1.6; the highest 2% begin near 21. The list shows a part of the results.

Drawing on the supplement of paper PMC12340641, this text covers relative growth recovery for 60 molecules.

The subject of this test is HEK293FT dCK*-IKZF1. Nature of the test: relative growth recovery (pomalidomide 10 uM = 100%, DMSO = 0%); higher = more growth rescue (IKZF1 fusion degradation). The settings on record: compound concentration: 5 uM; AraC concentration: 0.3 uM; overnight pretreatment + 4 days AraC. Here is the method: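 Growth recovery screen of the molecular-glue-like (Specs) library. HEK293FT cells expressing a dCK*-IKZF1 fusion (primary) or dCK* alone (counter) were pretreated overnight with compound at 5 uM, then given 0.3 uM AraC for 4 days. Hoechst nuclei were counted by imaging. Primary: normalised to pomalidomide (100%) and DMSO (0%), mean of 2 replicates. Counter: normalised to no-AraC (100%) and AraC+DMSO (0%), single replicate.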
On to `COc1c(C)cccc1C(=O)N1CCCC1c1cccc(Nc2nc(C)cs2)n1` (stereo not given), for which the relative growth recovery was -2.85%.
In the case of `Cc1nonc1CC(=O)N1CCC(c2cccc(Nc3nc(C)c(C)s3)n2)CC1` it was 13.2%.
On to `COc1cc(NS(=O)(=O)c2ccc(NC(=O)COc3cccc(C)c3)cc2)nc(OC)n1`, for which the relative growth recovery was -18.6%.
Regarding `CCOc1ccccc1OCC(=O)Nc1ccc(S(=O)(=O)Nc2ccccn2)cc1`, the relative growth recovery was -1.77%.
As to `Cc1ccc(/C=C/C(=O)Nc2ccc(S(=O)(=O)Nc3cc(C)nc(C)n3)cc2)cc1`, the relative growth recovery is -1.54%.
Consider `COc1cc(NS(=O)(=O)c2ccc(NC(=O)C(C)(C)C)cc2)nc(OC)n1`, for which the relative growth recovery turned out to be 2.35%.
As for `O=S(=O)(Nc1ccc(S(=O)(=O)Nc2ncccn2)cc1)c1ccc(Cl)cc1`, the figure is -4.2%; as for `O=C(CSc1nnc2c(n1)[nH]c1ccccc12)Nc1cc(Cl)cc(Cl)c1`, -18.7%.
As to `CCCc1cnc(Nc2cccc(C3CCN(C(=O)C4CCCCN4C(=O)COC)CC3)n2)s1` (stereo not given), the relative growth recovery was -4.5%.
In the case of `Cc1ccc(CC(=O)N2CCOC(c3cccc(Nc4nccs4)n3)C2)cc1C` (stereo not given) it was 15.9%; in that of `O=C(O)CCOCCOCCOCCOCCNc1cc2c(cc1F)C(=O)N(C1CCC(=O)NC1=O)C2=O` (stereo not given), 1.62%; in that of `CC(C)(C)C(=O)NC1(C(=O)N2CCC(c3cccc(Nc4ncc(Cl)s4)n3)CC2)CCCCC1`, -18.6%.
As for `Cc1cc(C)nc(NS(=O)(=O)c2ccc(NC(=O)CSc3nc4ccccc4[nH]3)cc2)n1`, the figure is 3.98%.
Consider `CCC(CC)C(=O)Nc1ccc(S(=O)(=O)Nc2nccc(C)n2)cc1`, for which the relative growth recovery was -0.49%.
Regarding `O=C1CCC(N2C(=O)c3ccc(NCCCn4cc(C(=O)O)cn4)cc3C2=O)C(=O)N1` (stereo not given), the relative growth recovery is -3.6%.
As for `Cc1cnc(C(=O)N2CCC(c3cccc(Nc4nccs4)n3)CC2)cn1`, the figure is -0.78%; as for `COc1cc(NS(=O)(=O)c2ccc(NC(=S)NC(=O)/C=C/c3ccc(F)cc3)cc2)nc(OC)n1`, -16.2%.
As for `CC(=O)N1CCCCC1c1csc(Nc2ccccn2)n1` (stereo not given), the figure is 1.36%.
Regarding `COc1ccc(Cl)cc1C(=O)Nc1ccc(S(=O)(=O)Nc2nccc(C)n2)cc1`, the relative growth recovery is -1.7%.
Turning to `Cc1ccc2[nH]c3nc(SCC(=O)Nc4cccc(Cl)c4C)nnc3c2c1`, the relative growth recovery was -3%.
As for `COC(C)(C)C(=O)N1CCOC(c2cccc(Nc3ncc(C)s3)n2)C1` (stereo not given), the figure is -8.72%.
As for `O=C(CSc1nc2cc(Cl)ccc2[nH]1)Nc1ncccn1`, the figure is -1.69%; as for `Cc1csc(Nc2cccc(C3CCCN3C(=O)Cc3c[nH]c4ccccc34)n2)n1` (stereo not given), 11.2%; as for `CC(C)c1cnc(Nc2cccc(C3CCN(C(=O)C4CCCCC4)CC3)n2)s1`, 2.44%.
As for `Cc1cccc(OC(C)(C)C(=O)N2CCOC(c3cccc(Nc4ncc(C)s4)n3)C2)c1` (stereo not given), the relative growth recovery came out at 0.545%.
As for `CC(C)(C)CC(=O)NC1(C(=O)N2CCC(c3cccc(Nc4ncc(Cl)s4)n3)CC2)CCCCC1`, the relative growth recovery was -16.4%.
For the molecule `Cc1cc(C)nc(NS(=O)(=O)c2ccc(Nc3nc(-c4ccccc4)cs3)cc2)n1`, the relative growth recovery was -3.62%.
As for `CC(=O)Nc1ccc(S(=O)(=O)Nc2nccc(/C=C/c3ccc(Cl)cc3)n2)cc1`, the figure is -3.16%; as for `Cc1cnc(Nc2cccc(C3CN(C(=O)CN4CCN(C)CC4)CCO3)n2)s1` (stereo not given), 2.71%; as for `O=C(Nc1ccc(S(=O)(=O)Nc2ccccn2)cc1)c1ccccc1F`, 1.19%.
Consider `Cc1cnc(Nc2cccc(CC3CCN(C(=O)c4cccc(Cl)c4F)CC3)n2)s1`, for which the relative growth recovery was -14.4%.
In the case of `COc1cc(NS(=O)(=O)c2ccc(NC(=O)c3ccccc3C)cc2)nc(OC)n1` it was -0.335%.
In the case of `Cc1csc(Nc2cccc(C3CCN(C(=O)CN(C)C)CC3)n2)n1` it was 15.2%; in that of `Cc1cccc2c1[nH]c1nc(SCC(=O)Nc3ccc(Cl)cc3)nnc12`, -3.74%.
In the case of `CCCc1cnc(Nc2cccc(C3CCN(C(=O)CN)CC3)n2)s1` it was -15.8%.
With `Cc1cnc(Nc2cccc(C3CCN(CC(=O)N(C)C4CCCCC4)CC3)n2)s1`, the relative growth recovery is -8.8%.
`COc1nccnc1NS(=O)(=O)c1ccc(NC(=S)NC(=O)c2ccc(F)c(F)c2)cc1`: the relative growth recovery is -1.25%.
As for `Cc1nc(Nc2cccc(C3CCCN3C(=O)c3c(C)oc4c3CCCC4)n2)sc1C` (stereo not given), the figure is -4.17%.
Turning to `O=C(Nc1ccc(S(=O)(=O)Nc2ncccn2)cc1)c1ccc(N2C(=O)c3ccccc3C2=O)cc1`, the relative growth recovery was found to be 5.91%.
On to `COC1CCCC(C(=O)N2CCOC(c3cccc(Nc4ncc(C)s4)n3)C2)C1` (stereo not given), for which the relative growth recovery is -5.89%.
As for `Cc1cnc(Nc2cccc(C3CN(C(=O)CN4CCc5ccccc5C4)CCO3)n2)s1` (stereo not given), the figure is -0.525%; as for `Cc1cc(C)nc(NS(=O)(=O)c2ccc(NC(=O)C(C)Oc3c(C)cccc3C)cc2)n1` (stereo not given), -2.94%; as for `CCOc1cc(C(=O)Nc2ccc(S(=O)(=O)Nc3ncccn3)cc2)cc(OCC)c1OCC`, 0.09%.
In the case of `COc1ccc(Cl)c2c1[nH]c1nc(SCC(=O)Nc3ccc(F)cc3)nnc12` it was -2.51%.
As for `Cc1cnc(Nc2cccc(C3(C(=O)NCCO)CCN(C(=O)C4CCCCC4)CC3)n2)s1`, the figure is -5.96%; as for `CCC(CC)C(=O)N1CCOC(c2cccc(Nc3ncc(C)s3)n2)C1` (stereo not given), -16%.
With `Cc1cnc(Nc2cccc(C3CN(C(=O)C4CCCC(C)C4)CCO3)n2)s1` (stereo not given), the relative growth recovery is -10.3%.
In the case of `Cc1ccc2[nH]c3nc(SCC(=O)Nc4ccc(Cl)cc4)nnc3c2c1` it was -3.19%; in that of `Cc1cc(C)cc(OCC(=O)Nc2ccc(S(=O)(=O)Nc3nc(C)cc(C)n3)cc2)c1`, -2.81%.
Turning to `Cc1cc(NS(=O)(=O)c2ccc(NC(=O)C(C)Oc3ccc(F)cc3)cc2)nc(C)n1` (stereo not given), the relative growth recovery was -0.56%.
As for `NC1(C(=O)N2CCC(c3cccc(Nc4ncc(CC(F)(F)F)s4)n3)CC2)CC1`, the figure is -18.8%; as for `COc1ccc(CCC(=O)Nc2ccc(S(=O)(=O)Nc3nccc(C)n3)cc2)cc1`, -1.64%; as for `Cc1cccc(N2CC(C(=O)Nc3ccc(S(=O)(=O)Nc4ncccn4)cc3)CC2=O)c1C` (stereo not given), -2.91%.
As for `CCc1ccc(C(=O)Nc2ccc(S(=O)(=O)Nc3nc(C)cc(C)n3)cc2)o1`, the figure is 0.865%.
Take `O=C(O)CCOCCOCCOCCOCCNc1cccc2c1C(=O)N(C1CCC(=O)NC1=O)C2=O` (stereo not given): the relative growth recovery worked out at 0.6%.
In the case of `CC(C)(C)C(=O)N1CCOC(c2cccc(Nc3ncc(Cc4ccccc4F)s3)n2)C1` (stereo not given) it was 0.925%; in that of `Cc1cc(C)nc(NS(=O)(=O)c2ccc(NC(=O)c3ccccc3I)cc2)n1`, -0.26%.
In the case of `O=C(C1COCCN1)N1CCC(c2cccc(Nc3ncc(-c4ccccc4)s3)n2)CC1` (stereo not given) it was -3.4%; in that of `O=C(C1CCCCC1)N1CCOC(c2cccc(Nc3ncc(Cc4ccccc4)s3)n2)C1` (stereo not given), 2.33%.
Regarding `COc1cc(NS(=O)(=O)c2ccc(Nc3nc(-c4ccc(F)cc4F)cs3)cc2)nc(OC)n1`, the relative growth recovery turned out to be 0.525%.
